Consider 10 compounds from patent publication US9650358B2 (priority 2013, dated 2017).

The test system of the assay is H929 cells. The experiment in a line: cells. The following applies: Homo sapiens, NCI-H929, 24 h, read-out: H929 viability EC50.

For orientation: EC50 means the concentration at which the effect is half-maximal. Turning to `O=C(Nc1cc(-c2ccc3ncn(CC4CCOCC4)c3c2)c(Cl)cn1)[C@H]1CCC[C@@H](C(=O)N2CCC[C@H]2CO)C1` (mixture of isomers) [Example 335, (cis)-N-{5-chloro-4-[1-(tetrahydro-2H-pyran-4-ylmethyl)-1H-benzimidazol-6-yl]pyridin-2-yl}-3-{[(2S)-2-(hydroxymethyl)pyrrolidin-1-yl]carbonyl}cyclohexanecarboxamide], the EC50 was 640 nM.

As for `OCC(O)CN[C@H]1CC[C@H](Nc2cc(-c3ccc4ncn(Cc5cccc(F)c5)c4c3)c(Cl)cn2)CC1` (relative stereo) [Example 236, 3-{[trans-4-({5-chloro-4-[1-(3-fluorobenzyl)-1H-benzimidazol-6-yl]pyridin-2-yl}amino)cyclohexyl]amino}propane-1,2-diol], the EC50 came out at 320 nM.

In the case of `CC(C)(CN[C@H]1CC[C@H](Nc2cc(-c3ccc4ncn(Cc5cccc(F)c5)c4c3)c(Cl)cn2)CC1)C[S+]([O-])c1ccccc1` (relative stereo) [Example 241, trans-N-{5-chloro-4-[1-(3-fluorobenzyl)-1H-benzimidazol-6-yl]pyridin-2-yl}-N′-[2,2-dimethyl-3-(phenylsulfinyl)propyl]cyclohexane-1,4-diamine], the half-maximal effective concentration (EC50) worked out at 190 nM.

Regarding `COC(C)CN[C@H]1CC[C@H](Nc2cc(-c3ccc4ncn(Cc5cccc(F)c5)c4c3)c(Cl)cn2)CC1` (relative stereo) [Example 242, trans-N-{5-chloro-4-[1-(3-fluorobenzyl)-1H-benzimidazol-6-yl]pyridin-2-yl}-N′-(2-methoxypropyl)cyclohexane-1,4-diamine], the EC50 stood at 210 nM.

On to `CC(CN[C@H]1CC[C@H](Nc2cc(-c3ccc4ncn(Cc5cccc(F)c5)c4c3)c(Cl)cn2)CC1)OC1CCCCC1` (relative stereo) [Example 243, trans-N-{5-chloro-4-[1-(3-fluorobenzyl)-1H-benzimidazol-6-yl]pyridin-2-yl}-N′-[2-(cyclohexyloxy)propyl]cyclohexane-1,4-diamine], for which the half-maximal effective concentration (EC50) is 470 nM.

On to `CC1(C)CCC(CN[C@H]2CC[C@H](Nc3cc(-c4ccc5ncn(Cc6cccc(F)c6)c5c4)c(Cl)cn3)CC2)O1` (relative stereo) [Example 244, trans-N-{5-chloro-4-[1-(3-fluorobenzyl)-1H-benzimidazol-6-yl]pyridin-2-yl}-N′-[(5,5-dimethyltetrahydrofuran-2-yl)methyl]cyclohexane-1,4-diamine], for which the EC50 was determined as 290 nM.

As to `CC(CO)N[C@H]1CC[C@H](Nc2cc(-c3ccc4ncn(Cc5cccc(F)c5)c4c3)c(Cl)cn2)CC1` (relative stereo) [Example 246, 2-{[trans-4-({5-chloro-4-[1-(3-fluorobenzyl)-1H-benzimidazol-6-yl]pyridin-2-yl}amino)cyclohexyl]amino}propan-1-ol], the EC50 is 140 nM.

Take `COC(=O)[C@H]1CCC[C@@H](C(=O)Nc2cc(-c3ccc4ncn(CC5CCOCC5)c4c3)c(Cl)cn2)C1` (relative stereo) [Example 331, methyl (cis)-3-({5-chloro-4-[1-(tetrahydro-2H-pyran-4-ylmethyl)-1H-benzimidazol-6-yl]pyridin-2-yl}carbamoyl)cyclohexanecarboxylate]: the EC50 came out at 180 nM.

In the case of `O=C(O)[C@H]1CCC[C@@H](C(=O)Nc2cc(-c3ccc4ncn(CC5CCOCC5)c4c3)c(Cl)cn2)C1` (relative stereo) [Example 332, (cis)-3-({5-chloro-4-[1-(tetrahydro-2H-pyran-4-ylmethyl)-1H-benzimidazol-6-yl]pyridin-2-yl}carbamoyl)cyclohexanecarboxylic acid], the concentration giving a half-maximal response (EC50) is more than 10000 nM.

For `O=C(Nc1cc(-c2ccc3ncn(CC4CCOCC4)c3c2)c(Cl)cn1)[C@H]1CCC[C@@H](C(=O)N2CC(O)C2)C1` (relative stereo) [Example 333, (cis)-N-{5-chloro-4-[1-(tetrahydro-2H-pyran-4-ylmethyl)-1H-benzimidazol-6-yl]pyridin-2-yl}-3-[(3-hydroxyazetidin-1-yl)carbonyl]cyclohexanecarboxamide], the EC50 is 4800 nM.
